The densities may have been worked out from excess volumes.
Assay: xn = mol fraction of the nth substance listed
Details: 101 kPa

CCCC[n+]1ccccc1.F[B-](F)(F)F + CCO
mass density [kg/m3]
Details	303.15 K	313.15 K	323.15 K
x2 = 0.072	1200.5	–	1186.9
x2 = 0.147	1189.4	1182.7	1175.7
x2 = 0.2229	–	1169.9	–
x2 = 0.3295	1155.7	1148.8	1141.7
x2 = 0.4136	1135.9	1128.8	–
x2 = 0.5006	1111.8	1104.6	1097.3
x2 = 0.5789	–	–	1071.2
x2 = 0.7074	1030.7	1023.2	1016
x2 = 0.8052	–	965.7	958.5
x2 = 0.8999	897.8	889.7	–
x2 = 0.948	847.8	839.4	831.1

CCCC[n+]1ccccc1.F[B-](F)(F)F + CO
Details	mass density [kg/m3]
293.15 K, x2 = 0.2119	1195.3
293.15 K, x2 = 0.3113	1181.8
293.15 K, x2 = 0.3856	1170
293.15 K, x2 = 0.7044	1081.1
293.15 K, x2 = 0.9023	942.3
303.15 K, x2 = 0.2119	1188.2
303.15 K, x2 = 0.3856	1162.6
303.15 K, x2 = 0.6109	1109.2
303.15 K, x2 = 0.9023	933.5
313.15 K, x2 = 0.1058	1193.4
313.15 K, x2 = 0.2119	1181.4
313.15 K, x2 = 0.3113	1167.7
313.15 K, x2 = 0.3856	1155.6
313.15 K, x2 = 0.6109	1101.9
313.15 K, x2 = 0.7044	1066.2
313.15 K, x2 = 0.9512	862
323.15 K, x2 = 0.211	1174.3
323.15 K, x2 = 0.3066	1161.4
323.15 K, x2 = 0.4111	1144
323.15 K, x2 = 0.5203	1120.6
323.15 K, x2 = 0.703	1059.9
323.15 K, x2 = 0.8081	1001.3
323.15 K, x2 = 0.9038	916.3

— a compilation of properties of binary mixtures (doi:10.1016/j.jct.2010.07.014)
